# According to PubChem BioAssay (NCI):
#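 Cultured in 96-well plates, cells were exposed to test compound for 48 hours across five concentrations. GI50 = concentration required for 50% inhibition of growth. Definition used: TGI = concentration required for complete inhibition of growth.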
# Tested on: NCI-H322M lung
# Test: inhibition of tumour cell growth, NCI panel, 48 h
SMILES,GI50,TGI
N#C/C(=C\c1ccc(N(c2ccccc2)c2ccccc2)cc1)C(N)=O,> 100 µM,> 100 µM
O=C(N/N=C/c1ccc(B(O)O)s1)c1[nH]c2ccc(Br)cc2c1-c1ccccc1,0.613 µM,17.8 µM
Cn1cc(-c2cc3nc(-c4cn(C)c5ncc(Br)cc45)cc(N)n3n2)c2cc(Cl)ccc21,1.66 µM,4.2 µM
